Results as given in the supplement of paper PMC3334620.
Whole data set: some 33,000 sequences, median “E-score (-0.5 to 0.5)” near -0.04, cut for the highest 2% near 0.36. Some of the results follow.

Each sequence was assayed against T1, Hmlalpha2 (UniProt P0CY09) (assay: PBM E-score (8-mer binding enrichment) (E-score (-0.5 to 0.5)); higher = stronger / more preferred TF binding; most listed sequences are background and not binding sites). Conditions: protein concentration: 200 nM; construct: GST-full length.
T1 sequence: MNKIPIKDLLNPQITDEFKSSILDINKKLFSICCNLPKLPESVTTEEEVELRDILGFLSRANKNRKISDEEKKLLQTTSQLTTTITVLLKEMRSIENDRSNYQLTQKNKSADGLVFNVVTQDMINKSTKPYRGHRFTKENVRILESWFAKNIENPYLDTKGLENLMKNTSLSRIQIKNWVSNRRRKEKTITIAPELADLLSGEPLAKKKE
Summary of the method: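 E-scores (a modified Wilcoxon-Mann-Whitney statistic) were assigned by the Universal PBM Analysis Suite to every ungapped eight-base word pooled with its reverse complement. The input came from universal all-10-mer Agilent arrays made double-stranded by primer extension and probed with GST-tagged yeast transcription factors at about 100-200 nM. Fluorescent anti-GST detected bound protein, and masliner normalised the scans.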

| Sequence | PBM E-score |
| --- | --- |
| CATTGCGC | -0.0675 |
| GGCACCAC | -0.215 |
| AATTCCCT | -0.108 |
| CAAGCTCC | -0.197 |
| AACTGTGC | 0.0396 |
| GTGCACTA | -0.0564 |
| CACTAGTC | -0.172 |
| TCAGAACA | 0.196 |
| GCTGTCAA | 0.0865 |
| AAGGAAGG | -0.0177 |
| CCCACGGG | -0.144 |
| CGGTAAGA | -0.119 |
| AAGTGAGT | 0.0309 |
| ACCAGTGC | -0.164 |
| AGTAATAC | 0.211 |
| ACCTCTAG | -0.0295 |
| AAAGTAAC | 0.137 |
| GGCGCAAC | -0.0658 |
| AGTGAATA | 0.183 |
| ACGCCCAA | 0.0228 |
| CGGCTGGA | -0.33 |
| AACACACC | 0.327 |
| ATATTGCC | -0.0977 |
| ACAAAGTA | 0.268 |
| AGTACATC | 0.233 |

| Sequence | PBM E-score |
| --- | --- |
| CGACAGTA | -0.128 |
| AGGCGCCC | -0.316 |
| TGCCCCCA | -0.311 |
| CCAGTTGC | -0.368 |
| ATCATTAA | 0.23 |
| ACAGCGAA | -0.00161 |
| TGAGAGCA | -0.212 |
| CCCCTCCG | -0.0756 |
| AAGTGTTG | 0.238 |
| AACCAATA | 0.132 |
| TACAGTCA | 0.0807 |
| AACGAACC | 0.036 |
| CGCTCTGA | -0.135 |
| ACGAAGAC | -0.216 |
| CCCCGGTC | -0.364 |
| ACCGTTCG | -0.0451 |
| CGTGGCTA | -0.182 |
| CATCAGCA | -0.151 |
| GATCCATC | -0.112 |
| AATCAATA | 0.126 |
| CATTGGGA | -0.134 |
| TACGCCAA | -0.0474 |
| AAAGGGCG | 0.109 |
| CCCGCCAC | -0.152 |
| CGATACAC | 0.119 |

| Sequence | PBM E-score |
| --- | --- |
| CTTCGTCA | 0.0527 |
| CGCCGAGA | -0.302 |
| CCCGATTC | -0.0455 |
| AACAAAGT | 0.185 |
| ATAAATCC | -0.0583 |
| ATTTGAAC | 0.229 |
| ACACTGAC | 0.164 |
| CGTCAGCA | -0.0588 |
| AGTACTCC | -0.31 |
| ACACGGGC | 0.325 |
| AACAGTCT | 0.0162 |
| AATTTTCT | 0.0164 |
| GATCTAAC | 0.0316 |
| AATATATG | 0.105 |
| GCTGCCTA | -0.0846 |
| ACGGGTGC | -0.136 |
| AAATCTAC | 0.244 |
| CGCCTTTA | -0.105 |
| CAATTATA | 0.119 |
| CCAGTCTA | -0.196 |
| GCTTGTGA | -0.0542 |
| CGGTAGTA | 0.108 |
| ACACCTAG | -0.163 |
| CGGCACGA | -0.0638 |
| ACCTGTCA | -0.078 |

| Sequence | PBM E-score |
| --- | --- |
| CACCTATG | -0.0895 |
| ATAGATGG | -0.225 |
| CTGCTCTA | 0.039 |
| GCGTGCTA | 0.0715 |
| CATGTTCC | 0.221 |
| AAAGCGGT | 0.0168 |
| ATGTTCGC | 0.0726 |
| CACGCTGC | 0.0898 |
| ACTTAACG | 0.14 |
| CCTTCGAC | -0.0842 |
| GATCTCTA | -0.206 |
| CAAGAGGC | -0.133 |
| AGGTCCAC | -0.29 |
| GAGCGGCC | -0.185 |
| ACAAGCGA | 0.112 |
| CCTGATAC | -0.0102 |
| CAGTGTTC | -0.0228 |
| AAATCTGT | 0.0323 |
| AAAATAGT | 0.0776 |
| AGCCCAAG | -0.35 |
| CCACTGCG | -0.243 |
| ATCTCGTC | -0.0442 |
| ACCCCCGG | -0.368 |
| GGAACACA | 0.162 |
| AAGAGCGC | -0.0388 |

| Sequence | PBM E-score |
| --- | --- |
| CGTTAAAA | 0.272 |
| CGGGTAAG | -0.133 |
| ACTATCCC | -0.386 |
| GCACCTCC | -0.361 |
| CTTGGAGC | -0.214 |
| GCCGTATA | 0.0926 |
| CATGGAGC | -0.0239 |
| AGGCGGCG | -0.0131 |
| CACTGCCC | -0.128 |
| CGGCCGTC | -0.00449 |
| CATCCGAA | 0.0505 |
| AAAGCGGA | 0.0251 |
| GGGTAGCA | -0.177 |
| TCACCAGA | -0.263 |
| GGTCGTTA | 0.0728 |
| CCCCGCTA | -0.237 |
| AGAGACCG | -0.163 |
| ATTGTCAC | 0.132 |
| GCCCAATA | -0.0408 |
| CCTAACCA | 0.006 |
| GGGACGAC | -0.175 |
| TACCATAA | 0.0891 |
| AGCGACGA | -0.192 |
| TACAATAA | 0.179 |
| GTGCCACA | -0.182 |

| Sequence | PBM E-score |
| --- | --- |
| AAAGGTCA | 0.0116 |
| ATGTTGCA | 0.24 |
| ATCTTACA | 0.325 |
| TTGGGAAA | 0.0921 |
| CTCATCCA | 0.00492 |
| CCCGGTAG | -0.152 |
| AGAAAAGC | -0.0875 |
| GGCGCACA | -0.17 |
| GACGAGAA | 0.0881 |
| TAATATCA | 0.194 |
| CGTAAAGC | 0.305 |
| AGGACACT | -0.338 |
| ACCGAGCC | -0.211 |
| CCAATCGG | -0.233 |
| TACTAGGA | 0.1 |
| AAATCTTA | 0.191 |
| CTTTCGTC | -0.0195 |
| CGGCACTA | -0.285 |
| CTGACATA | 0.191 |
| ACTATTCG | 0.044 |
| CCAAGAAG | -0.0027 |
| CCGCATAA | -0.111 |
| GCCGACGA | -0.15 |
| ACGTAGAC | 0.158 |
| CGATTCGC | 0.0691 |

| Sequence | PBM E-score |
| --- | --- |
| GATTGCAA | -0.0333 |
| ACAGTAGC | -0.0946 |
| AGATGCGC | -0.136 |
| AGAGGTCC | -0.273 |
| CTGAGAGC | -0.196 |
| ACTATAAC | 0.139 |
| CGAACTAC | 0.108 |
| CGTCATAC | 0.115 |
| GAGAGAGA | -0.166 |
| GCCTTTAA | 0.0307 |
| AATTCGGC | -0.138 |
| AGACAACT | 0.0402 |
| ATATGTGG | 0.126 |
| CTGCGCGA | -0.0912 |
| GCTTCGAA | -0.0348 |
| CTTCAGGC | -0.198 |
| CAAGGGTG | -0.153 |
| GAGGTGTA | 0.155 |
| CTAGAGAG | -0.259 |
| CTACCGTC | -0.296 |
| GTGTAAGA | 0.401 |
| ACCCCTTA | -0.0706 |
